Data reported in ChEMBL document CHEMBL4888484, “Replenishing the malaria drug discovery pipeline: Screening and hit evaluation of the MMV Hit Generation Library 1 (HGL1) against asexual blood stage Plasmodium falciparum ,using a nano luciferase reporter read-out” (2022).
Out of some 150,000 compounds screened, about 540 (0.36%) showed an effect of 50% or more. This is one part of the list.

Tested on: Plasmodium falciparum
Experiment: Primary screen in NF54 nanoGlo assay, in single point, at 2uM, 72h; a lower Z score goes with more inhibition
Type: functional, Erythrocyte
Conditions: timepoint 72 hour

| Structure (SMILES) | % Inhibition [%] | Z score |
| --- | --- | --- |
| O=C(Nc1ccccc1)OC1CCCC(NC(=O)c2ccc3c(c2)OCO3)C1 (stereo not given) | 0 | -0.07 |
| COc1ccc(OCC2CCN(C(=O)c3cnc(O)cn3)CC2)cc1 | 7 | -0.97 |
| COc1cc([C@H](C)NC2CC(c3cc(F)cc(F)c3)C2)ccn1 (stereo not given in full) | -33 | 3.87 |
| COCC(=O)N1CCN(C2=Nc3ccccc3Oc3c(OC)cccc32)C[C@@H]1C | 2 | -0.23 |
| COC(=O)c1ccc2c(c1)CC[C@H](NC(=O)OCC1CC1)C(=O)N2 | -13 | 2.06 |
| N#CC1(C(=O)N2CCc3[nH]cnc3C2)CCOCC1 | 0 | -0.09 |
| Cc1ncsc1CCN1Cc2ccccc2C2(CCC2)C1 | 4 | -0.49 |
| O=C(c1ccco1)N1CCN(Cc2ccncc2)CC1 | 7 | -0.91 |
| COCCN1C[C@@H](CNc2nccnc2OC)CC1=O | 3 | -0.63 |
| CN(CCN1CCCC1=O)C(=O)NCc1ccco1 | -21 | 2.78 |
| CCOc1cccc(Cc2noc([C@]3(O)CCCN(C(C)=O)C3)n2)n1 | 9 | -1.62 |
| CN(CC1CCCCO1)C1CCCC1S(C)(=O)=O (stereo not given) | 1 | -0.08 |
| CC(C)(C)c1nnc(CNC(=O)[C@@H]2CCc3cccnc32)s1 | -3 | 0.41 |
| COc1ccc(CN2C(=O)[C@@H]3Cc4c([nH]c5ccccc45)C(C)(C)N3C2=O)cc1 | -2 | 0.27 |
| Cc1cc(O[C@H]2CCCN(C(=O)CN3CCN(c4ccccc4F)C3=O)C2)nc(C)n1 | 7 | -0.91 |
| COc1ccc(-c2nc(N3CCN(CCO)CC3)[nH]c(=O)c2C#N)cc1 | -17 | 1.54 |
| CCCCCS(=O)(=O)NCc1ccc(C#N)cc1F | 30 | -3.44 |
| CCn1cc(C(=O)N2CCC[C@H](c3[nH]ncc3-c3ccc(C)cc3)C2)c(C)n1 | 1 | -0.17 |
| O=C(NCCCN1CCOCC1)c1cnc2c(Cl)cccc2c1O | 3 | -0.48 |
| CC(C)(C)OC(=O)C1C[C@H](CNC(=O)C2CCCC(=O)N2)[C@H](O)C1 (stereo not given in full) | -1 | 0.18 |
| CCC[C@@H](C(=O)O)n1ccc(NC(=O)c2ccc3c(c2)CCOC3)n1 | -5 | 0.59 |
| CCOC(=O)N(C)c1ccc(NC(=O)N2CCC[C@H](n3nccc3C(F)(F)F)C2)cc1 | -8 | 0.72 |

| Structure (SMILES) | % Inhibition [%] | Z score |
| --- | --- | --- |
| Cc1ccc(C2CC(=O)N(Cc3ccc4c(c3)OCO4)C(=O)C2)cc1 | -8 | 0.93 |
| Cc1nc(N2CCOCC2)nc2c1CCC2 | -2 | 0.27 |
| CCn1ccc2cc(CCC(=O)N3CCN(CC(C)C)CC3)ccc21 | -6 | 0.63 |
| COc1cc2nc(-c3cccnc3)n(-c3cc(C(C)(C)C)c(O)c(C(C)(C)C)c3)c2cc1OC | 1 | -0.18 |
| CCN1CCCn2ccnc2[C@@H]1C1CCN(Cc2ccccc2)CC1 | -2 | 0.34 |
| COc1cccc(C(=O)NC[C@H](OC)c2cc3ccccc3o2)c1 | -9 | 1.03 |
| CN(C)C(=O)[C@@]12CN(Cc3ccccn3)C[C@@H]1CN(C(=O)c1ccccc1)C2 | -13 | 1.76 |
| O=S(=O)(NCC1(C2CC2)CCC1)[C@H]1CCOC1 | -11 | 2.06 |
| O=C(CCn1cnccc1=O)NC[C@@]12CCC[C@@H]1OCC2 | -10 | 1.24 |
| Fc1ccc(-c2nnc3n2C[C@@H](NCc2cccnc2)CC3)cc1 | 3 | -0.38 |
| Cc1ncc(CN2CCC[C@H](S(=O)(=O)NC3CCCC3)C2)s1 | 1 | -0.18 |
| O=C(NCCc1c[nH]cn1)c1cccc(NCc2cccs2)c1 | -8 | 0.98 |
| O=C1OC2(c3ccccc31)C(c1ccccc1)CC(=O)N2Cc1ccccc1 (stereo not given) | 34 | -4.38 |
| Cc1ccc(CN2CC[C@H](c3noc(-c4ccccn4)n3)C2)o1 | -10 | 1.43 |
| CCN(CC)C(=O)Nc1ccc(-c2c(C)nn(CC(N)=O)c2C)cc1 | 1 | -0.2 |
| C#CCN1CCC(C(=O)N2CC3CCCCC3C2)CC1 (stereo not given) | 22 | -2.53 |
| O=C(Nc1nc(-c2cccs2)cs1)[C@@H]1COc2ccccc2O1 | -8 | 0.73 |
| Clc1c(CNc2ncnc3c2CCC3)nc2ccccn12 | -3 | 0.37 |
| COc1cccc(CC(=O)Nc2nc3ccc(Cl)cc3o2)c1 | -3 | 0.63 |
| CN(C)CCOC1CCN(C(=O)[C@]2(c3ccccc3F)CC2(C)C)CC1 | 3 | -0.56 |
| O=C(CCC1CCCC1)NCC(=O)N1CCCCCCNC(=O)C[C@H]1c1ccccc1 | -9 | 1.34 |
| C=CCNC(=O)N(C)Cc1nccn1C | -8 | 0.8 |

| Structure (SMILES) | % Inhibition [%] | Z score |
| --- | --- | --- |
| COc1cc2c(cc1OC)CN(C(=O)c1nc(=O)[nH]c3ccccc13)CC2 | -5 | 0.99 |
| Cc1ccc2c(c1Br)N(C(=O)[C@@H]1COCCO1)CCC2 | -6 | 1.13 |
| C[C@H]1CN(C(=O)c2cnccn2)CCO1 | -7 | 0.75 |
| Cc1ccc(-c2cn[nH]c2[C@H]2CCCN(C(=O)Cn3ccnc3)C2)cc1 | 1 | -0.22 |
| COCC(=O)N1CCC(Oc2ccncc2Cl)CC1 | -2 | 0.4 |
| NC[C@H]1c2ccccc2C=Cc2ccc(Cl)cc21 | -1 | 0.08 |
| COc1cccc(NC(=O)N[C@H]2CCN(C(=O)c3cccn3C)[C@@H]2C(=O)N2CCC[C@@H]2C(N)=O)c1 | 4 | -0.55 |
| COc1ccccc1O[C@@H](C)CNc1ccc(C#N)nc1 | -4 | 0.54 |
| Cc1ccc(N[C@@H](C)Cn2cc(Br)cn2)cc1C(N)=O | 10 | -1.26 |
| CCN(C(=O)N1CCC(C(=O)N2CCn3cncc3C2)CC1)C(C)C | -7 | 0.96 |
| CC(C)O[C@@H](C)c1n[nH]c(=O)n1Cc1ccco1 | -1 | 0.08 |
| O=C(CCn1cccn1)N1CC2OCCN(Cc3ccccc3)C2C1 (stereo not given) | 4 | -0.33 |
| CO[C@H]1CC[C@H](NC(=O)c2cc(C)[nH]c(=O)c2)CC1 | -28 | 2.49 |
| Cc1ccc(Cl)c(NC(=O)Cc2ccn[nH]2)c1 | -17 | 1.72 |
| CCn1cnc(NC(=O)NCc2nccn2CC)n1 | 3 | -0.27 |
| COc1c[nH]c(C(=O)N2CCN(c3cccc(Cl)c3)CC2)cc1=O | 1 | -0.11 |
| COC(=O)c1cc(S(=O)(=O)N2CCC[C@H]2C(=O)Nc2ccc(OC)c(Cl)c2)cn1C | -10 | 1.79 |
| COc1ccccc1NC(=O)c1ccc([C@H]2Nc3cc(C(F)(F)F)ccc3S(=O)(=O)N2)cc1 | 6 | -0.82 |
| O=C(N/C=C/c1nc2ccccc2s1)c1ccco1 | 6 | -1.1 |
| Nc1[nH]nc(C2CCCCC2)c1-c1ccc2c(c1)OCO2 | 8 | -1.11 |
| CC(=O)N1CCCC1C1CCCN1C(C)c1nnc(-c2cccs2)o1 (stereo not given) | -16 | 1.66 |
| CC(NC(=O)C1CCC(=O)NC1)c1ccccc1 (stereo not given) | -9 | 1.39 |

| Structure (SMILES) | % Inhibition [%] | Z score |
| --- | --- | --- |
| C#CC[C@@H](CO)NC(=O)Nc1cccc(C)n1 | 9 | -0.96 |
| Cc1ccc(F)c(N2CCCC(NC(=O)NC(C)c3nc[nH]n3)C2)c1 (stereo not given) | 4 | -0.37 |
| O=C(C[C@H]1C(=O)NCCN1Cc1cccs1)NC(c1ccccc1)c1ccccc1 | -8 | 0.99 |
| CC(C)[C@H](NS(=O)(=O)CC1CCOCC1)c1ccccn1 | -10 | 1.91 |
| CCCCN(C)c1cc([C@H]2C[C@@H](N)C2)nc(N)n1 | -3 | 0.38 |
| COc1ccc(NC(=O)C2CCC(c3ccccc3)N(C(=O)NC(C)C)C2)cc1 (stereo not given) | -13 | 2.26 |
| O=C(Nc1ccc(Cl)cc1F)N1C[C@@H]2C[C@H](NS(=O)(=O)c3cccs3)[C@H]1C2 | 35 | -3.98 |
| Cc1ccc(CNC(=O)[C@]2(C)Cn3cnc(C(=O)N4CCN(c5ccccc5)CC4)c3C(=O)N2C2CC2)cc1 | -12 | 1.23 |
| Cc1ccc(C(=O)NC[C@H]2CN(C(C)C)CC23CCCCC3)s1 | -5 | 0.89 |
| C=CCOc1cc(C)c2c(c1C)[C@H](O)C([C@H](C)C(=O)NCCOC)CC2 (stereo not given in full) | 33 | -3.78 |
| CCOC1CC(NC(=O)N2CCC(n3cc(Cl)cn3)C2)C12CCCO2 (stereo not given) | -10 | 1.24 |
| CCOc1ccccc1C(=O)N[C@@H](CC)CO | -10 | 1.4 |
| COC(=O)CNC(=O)N1CCCCCCn2c(nnc2-c2ccc(F)cc2)CC1 | -4 | 0.51 |
| CC(C)[C@H](CO)NC(=O)c1cn(C2CCCCC2)nn1 | -1 | 0.14 |
| CCN1C(=O)C2(CCN(S(=O)(=O)c3ccc(OC)cc3)CC2)c2ccccc21 | -7 | 1.14 |
| O=C(NC[C@@H](c1ccccc1Cl)N1CCOCC1)c1ccc(Br)o1 | -10 | 1.37 |
| O=C(CN1CCC[C@@H]1CO)NC1CCCCCCC1 | -8 | 1.17 |
| Cc1cc(C(=O)N2C[C@H]3CCC[C@@H](C3)C2)ccc1F | -5 | 0.85 |
| Cc1ccccc1NC(=O)[C@]1(C)Oc2cccnc2N(C)C1=O | -3 | 0.6 |
